{
  "source": "the supplement of paper PMC8728848",
  "experiment_in_all_cases": "glycan array binding signal (z-score within array); higher = stronger binding",
  "conditions_in_all_cases": "glycan notation: IUPAC condensed, linker removed; mutation: K348A",
  "key": {"[1]": {"molecular_target": "Fuc(a1-2)Gal", "outline": "(§1)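 Glycan array data came from 3228 arrays in the Consortium for Functional Glycomics database, and only arrays with an available protein sequence were kept. Glycan names were put into IUPAC-condensed notation, and columns mapping to the same glycan were averaged. The binding signal is a within-array Z-score, averaged across arrays of one protein sequence run at different concentrations or buffers and across linkers. A negative Z-score can be read as non-binding.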"}, "[2]": {"molecular_target": "Fuc(a1-2)Gal(b1-3)GalNAc", "outline": "as §1"}, "[3]": {"molecular_target": "Fuc(a1-2)Gal(b1-3)GalNAc(b1-3)Gal", "outline": "as §1"}, "[4]": {"molecular_target": "Fuc(a1-2)Gal(b1-3)GalNAc(b1-3)Gal(a1-4)Gal(b1-4)Glc", "outline": "as §1"}, "[5]": {"molecular_target": "Fuc(a1-2)Gal(b1-3)GalNAc(b1-4)[Neu5Ac(a2-3)]Gal(b1-4)Glc", "outline": "as §1"}, "[6]": {"molecular_target": "Fuc(a1-2)Gal(b1-3)GlcNAc", "outline": "as §1"}, "[7]": {"molecular_target": "Fuc(a1-2)Gal(b1-3)GlcNAc(b1-3)Gal(b1-4)Glc", "outline": "as §1"}, "[8]": {"molecular_target": "Fuc(a1-2)Gal(b1-3)[Fuc(a1-4)]GlcNAc", "outline": "as §1"}, "[9]": {"molecular_target": "Fuc(a1-2)Gal(b1-4)Glc", "outline": "as §1"}, "[10]": {"molecular_target": "Fuc(a1-2)Gal(b1-4)Glc6S", "outline": "as §1"}, "[11]": {"molecular_target": "Fuc(a1-2)Gal(b1-4)GlcNAc", "outline": "as §1"}, "[12]": {"molecular_target": "Fuc(a1-2)Gal(b1-4)GlcNAc(b1-3)Gal(b1-4)GlcNAc", "outline": "as §1"}, "[13]": {"molecular_target": "Fuc(a1-2)Gal(b1-4)GlcNAc(b1-3)Gal(b1-4)GlcNAc(b1-3)Gal(b1-4)GlcNAc", "outline": "as §1"}, "[14]": {"molecular_target": "Fuc(a1-2)Gal(b1-4)GlcNAc6S", "outline": "as §1"}, "[15]": {"molecular_target": "Fuc(a1-2)Gal(b1-4)[Fuc(a1-3)]GlcNAc", "outline": "as §1"}, "[16]": {"molecular_target": "Fuc(a1-2)Gal(b1-4)[Fuc(a1-3)]GlcNAc(b1-3)Gal(b1-4)[Fuc(a1-3)]GlcNAc", "outline": "as §1"}, "[17]": {"molecular_target": "Fuc(a1-2)Gal(b1-4)[Fuc(a1-3)]GlcNAc(b1-3)Gal(b1-4)[Fuc(a1-3)]GlcNAc(b1-3)Gal(b1-4)[Fuc(a1-3)]GlcNAc", "outline": "as §1"}, "[18]": {"molecular_target": "Fuc(a1-2)Gal6S(b1-4)Glc", "outline": "as §1"}, "[19]": {"molecular_target": "Fuc(a1-2)Gal6S(b1-4)Glc6S", "outline": "as §1"}, "[20]": {"molecular_target": "Fuc(a1-2)Gal6S(b1-4)GlcNAc", "outline": "as §1"}, "[21]": {"molecular_target": "Fuc(a1-2)[Gal(a1-3)]Gal", "outline": "as §1"}, "[22]": {"molecular_target": "Fuc(a1-2)[Gal(a1-3)]Gal(b1-3)GlcNAc", "outline": "as §1"}, "[23]": {"molecular_target": "Fuc(a1-2)[Gal(a1-3)]Gal(b1-4)Glc", "outline": "as §1"}, "[24]": {"molecular_target": "Fuc(a1-2)[Gal(a1-3)]Gal(b1-4)GlcNAc", "outline": "as §1"}, "[25]": {"molecular_target": "Fuc(a1-2)[Gal(a1-3)]Gal(b1-4)[Fuc(a1-3)]GlcNAc", "outline": "as §1"}, "[26]": {"molecular_target": "Fuc(a1-2)[Gal(a1-4)]Gal(b1-4)GlcNAc", "outline": "as §1"}, "[27]": {"molecular_target": "Fuc(a1-2)[GalNAc(a1-3)]Gal", "outline": "as §1"}, "[28]": {"molecular_target": "Fuc(a1-2)[GalNAc(a1-3)]Gal(b1-3)GlcNAc", "outline": "as §1"}, "[29]": {"molecular_target": "Fuc(a1-2)[GalNAc(a1-3)]Gal(b1-4)Glc", "outline": "as §1"}, "[30]": {"molecular_target": "Fuc(a1-2)[GalNAc(a1-3)]Gal(b1-4)GlcNAc", "outline": "as §1"}, "[31]": {"molecular_target": "Fuc(a1-2)[GalNAc(a1-3)]Gal(b1-4)[Fuc(a1-3)]GlcNAc", "outline": "as §1"}, "[32]": {"molecular_target": "Fuc(a1-2)[GalNAc(a1-4)]Gal(b1-4)GlcNAc", "outline": "as §1"}, "[33]": {"molecular_target": "Fuc(a1-2)[GalNAc(b1-3)]Gal", "outline": "as §1"}, "[34]": {"molecular_target": "Fuc(a1-3)GlcNAc", "outline": "as §1"}, "[35]": {"molecular_target": "Fuc(a1-3)[Gal(b1-4)]Glc6S", "outline": "as §1"}, "[36]": {"molecular_target": "Fuc(a1-3)[Gal(b1-4)]GlcNAc", "outline": "as §1"}, "[37]": {"molecular_target": "Fuc(a1-3)[Gal(b1-4)]GlcNAc(b1-2)Man(a1-3)[Fuc(a1-3)[Gal(b1-4)]GlcNAc(b1-2)Man(a1-6)]Man(b1-4)GlcNAc(b1-4)GlcNAc", "outline": "as §1"}},
  "note": "The list shows a part of the results.",
  "data": [
    {"binder": "Surfactant Protein D (Human); Neck + Carbohydrate Recognition Domain (NCRD) (Homo sapiens) (protein) MLLFLLSALVLLTQPLGYLEAEMKTYSHRTMPSACTLVMCSSVESGLPGRDRDGREGPRGEKGDPGLPGAAGQAGMPGQAGPVGPKGDNGSVGEPGPKGDTGPSGPPGPPGVPGPAGREGALGKQGNIGPQGKPGPKGEAGPKGEVGAPGMQGSAGARGLAGPKGERGVPGERGVPGNTGAAGSAGAMGPQGSPGARGPPGLKGDKGIPGDKGAKGESGLPDVASLRQQVEALQGQVQHLQAAFSQYKKVELFPNGQSVGEKIFKTAQFVKPFTEAQLLCTQAGGQLASPRSAAENAALQQLVVAKNEAAFLSMTDSKTEGKFTYPTGESLVYSNWAPGEPNDDGGSEDCVEIFTNGKWNDRACGEARLVVCEF", "values": [
      {"measurement": "glycan array binding signal (z-score)", "setting": "[1]", "value": -0.169},
      {"measurement": "glycan array binding signal (z-score)", "setting": "[2]", "value": -0.169},
      {"measurement": "glycan array binding signal (z-score)", "setting": "[3]", "value": -0.172},
      {"measurement": "glycan array binding signal (z-score)", "setting": "[4]", "value": -0.168},
      {"measurement": "glycan array binding signal (z-score)", "setting": "[5]", "value": -0.148},
      {"measurement": "glycan array binding signal (z-score)", "setting": "[6]", "value": -0.171},
      {"measurement": "glycan array binding signal (z-score)", "setting": "[7]", "value": -0.166},
      {"measurement": "glycan array binding signal (z-score)", "setting": "[8]", "value": -0.177},
      {"measurement": "glycan array binding signal (z-score)", "setting": "[9]", "value": -0.169},
      {"measurement": "glycan array binding signal (z-score)", "setting": "[10]", "value": -0.162},
      {"measurement": "glycan array binding signal (z-score)", "setting": "[11]", "value": -0.173},
      {"measurement": "glycan array binding signal (z-score)", "setting": "[12]", "value": -0.178},
      {"measurement": "glycan array binding signal (z-score)", "setting": "[13]", "value": -0.104},
      {"measurement": "glycan array binding signal (z-score)", "setting": "[14]", "value": -0.167},
      {"measurement": "glycan array binding signal (z-score)", "setting": "[15]", "value": -0.176},
      {"measurement": "glycan array binding signal (z-score)", "setting": "[16]", "value": -0.156},
      {"measurement": "glycan array binding signal (z-score)", "setting": "[17]", "value": -0.151},
      {"measurement": "glycan array binding signal (z-score)", "setting": "[18]", "value": -0.168},
      {"measurement": "glycan array binding signal (z-score)", "setting": "[19]", "value": -0.177},
      {"measurement": "glycan array binding signal (z-score)", "setting": "[20]", "value": -0.176},
      {"measurement": "glycan array binding signal (z-score)", "setting": "[21]", "value": -0.171},
      {"measurement": "glycan array binding signal (z-score)", "setting": "[22]", "value": -0.132},
      {"measurement": "glycan array binding signal (z-score)", "setting": "[23]", "value": -0.18},
      {"measurement": "glycan array binding signal (z-score)", "setting": "[24]", "value": -0.105},
      {"measurement": "glycan array binding signal (z-score)", "setting": "[25]", "value": -0.148},
      {"measurement": "glycan array binding signal (z-score)", "setting": "[26]", "value": -0.176},
      {"measurement": "glycan array binding signal (z-score)", "setting": "[27]", "value": -0.164},
      {"measurement": "glycan array binding signal (z-score)", "setting": "[28]", "value": -0.179},
      {"measurement": "glycan array binding signal (z-score)", "setting": "[29]", "value": -0.164},
      {"measurement": "glycan array binding signal (z-score)", "setting": "[30]", "value": -0.17},
      {"measurement": "glycan array binding signal (z-score)", "setting": "[31]", "value": -0.136},
      {"measurement": "glycan array binding signal (z-score)", "setting": "[32]", "value": -0.151},
      {"measurement": "glycan array binding signal (z-score)", "setting": "[33]", "value": -0.167},
      {"measurement": "glycan array binding signal (z-score)", "setting": "[34]", "value": -0.116},
      {"measurement": "glycan array binding signal (z-score)", "setting": "[35]", "value": -0.017},
      {"measurement": "glycan array binding signal (z-score)", "setting": "[36]", "value": -0.143},
      {"measurement": "glycan array binding signal (z-score)", "setting": "[37]", "value": -0.176}
    ]}
  ]
}
